In PubChem BioAssay AID504339 (National Center for Advancing Translational Sciences (NCATS), 2011):
Screen size: about 390,000 compounds; about 17,000 (4.4%) were called active. Inconclusive means that the source gave no clear call. Such entries were picked first, then a sample of the others. The call rests on the fitted dose curve; in most records, active means well fitted inhibition curve with a large enough effect; inconclusive means small, poorly fitted or top-dose-only effect; inactive means no such curve, though single readings can be large or run the other way. Potencies beside an inconclusive call are fits to weak or partial responses and may not hold up.

Target: Lysine-specific demethylase 4A (Homo sapiens) (UniProt O75164)
Chain of UniProt O75164 (O75164 whole entry, looked up, the tested form may be a part): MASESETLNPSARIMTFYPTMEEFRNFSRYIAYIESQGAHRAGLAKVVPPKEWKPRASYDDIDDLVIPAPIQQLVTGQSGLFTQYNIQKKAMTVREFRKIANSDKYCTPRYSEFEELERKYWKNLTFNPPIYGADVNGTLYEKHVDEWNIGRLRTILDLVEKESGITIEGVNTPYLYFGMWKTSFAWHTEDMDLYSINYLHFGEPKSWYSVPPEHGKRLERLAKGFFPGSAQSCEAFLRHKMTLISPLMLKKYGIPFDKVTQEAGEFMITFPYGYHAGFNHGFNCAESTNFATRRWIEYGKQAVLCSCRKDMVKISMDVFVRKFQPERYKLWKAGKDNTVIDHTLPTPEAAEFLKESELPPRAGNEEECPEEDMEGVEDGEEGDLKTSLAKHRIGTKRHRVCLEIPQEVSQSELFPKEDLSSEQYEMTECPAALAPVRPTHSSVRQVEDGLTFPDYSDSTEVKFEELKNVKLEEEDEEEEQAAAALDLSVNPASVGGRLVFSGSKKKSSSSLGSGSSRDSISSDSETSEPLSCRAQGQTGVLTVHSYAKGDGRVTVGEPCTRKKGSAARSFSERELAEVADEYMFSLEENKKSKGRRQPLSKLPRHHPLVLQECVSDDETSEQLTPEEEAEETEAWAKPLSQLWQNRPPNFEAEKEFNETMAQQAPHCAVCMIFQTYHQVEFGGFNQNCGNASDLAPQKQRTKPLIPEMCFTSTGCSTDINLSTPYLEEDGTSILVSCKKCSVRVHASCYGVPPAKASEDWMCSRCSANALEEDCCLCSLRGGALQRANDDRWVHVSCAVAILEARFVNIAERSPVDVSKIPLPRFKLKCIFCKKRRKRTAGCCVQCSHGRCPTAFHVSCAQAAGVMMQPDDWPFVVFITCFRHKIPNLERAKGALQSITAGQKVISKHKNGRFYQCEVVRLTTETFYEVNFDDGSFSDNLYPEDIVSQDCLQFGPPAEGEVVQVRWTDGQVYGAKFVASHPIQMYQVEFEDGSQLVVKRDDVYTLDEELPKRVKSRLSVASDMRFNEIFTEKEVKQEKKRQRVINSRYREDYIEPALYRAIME
Assay: qHTS Assay for Inhibitors of JMJD2A-Tudor Domain; further: nearly all actives have a fitted effect of over 50% in size
Conditions: AlphaScreen JMJD2A-Tudor / H3K4me3 peptide binding; activity change, negative = inhibition: at 114 µM (top of the series)
On the % scale 0 is the no-effect control and ±100 the full control effect; potency means the concentration at half of the fitted maximal effect; tags describe the fitted curve by direction and shape.

| SMILES | Potency | activity change, negative = inhibition |
| --- | --- | --- |
| Cn1c(=O)[nH]c(=O)c2c1nc(SCCO)n2Cc1ccccc1Cl | inconclusive: 89.1 µM [inhibitor, single point] | – |
| CCN(CC)S(=O)(=O)c1cccc(-c2n[nH]c(=S)n2/N=C/c2ccc(Br)cc2)c1 | inconclusive: 70.8 µM [inhibitor, single point] | – |
| CCOc1ccc(OCC)c(NC(=O)CN(C)S(=O)(=O)c2cccc3nsnc23)c1 | active: 50.1 µM | – |
| NC(=O)c1c(NC(=O)C2CCCO2)sc2c1CCCCC2 (stereo not drawn) | inconclusive: 50.1 µM [inhibitor, single point] | – |
| Cc1nnc(SCC(=O)Nc2cc(S(=O)(=O)N3CCOCC3)ccc2C)s1 | – | inactive: -15.6% |
| COC(=O)c1cc2c(ccn2-c2ccc(F)cc2)n1C(C)C | inconclusive: 28.2 µM [inhibitor, partial curve] | – |
| Cn1c(C(=O)Nc2ccc3c(c2)OCO3)cc2sccc21 | inconclusive: 50.1 µM [inhibitor, partial curve] | – |
| O=C(C1=C[C@H](c2csc3ccccc23)C[C@H](OCCCCO)O1)N1CCN(Cc2ccccc2)CC1 | inconclusive: 89.1 µM [inhibitor, partial curve] | – |
| Cc1ccc([N+](=O)[O-])cc1NC(=S)NC(=O)c1c(Cl)cnn1C | – | inactive: -9.28% |
| Cc1cc(/C=N/NC(N)=S)c(C)n1-c1ccc(Cl)cc1 | inconclusive: 28.2 µM [inhibitor, single point] | – |
| Cc1nc2c(-c3ccccc3)c(C)nn2c(C)c1CCC(=O)NCCc1ccccc1 | – | inactive: -5.39% |
| COc1ccc2cc[nH]c2c1 | inconclusive: 17.8 µM [inhibitor, full curve, poor fit] | – |
| CC1(C)N(O)CC(c2cccs2)=[N+]1[O-] | active: 28.2 µM | – |
| CCCCOc1ccc(/C=N/NC(=O)c2nnn(-c3nonc3N)c2CN2CCCCCC2)cc1 | inconclusive: 56.2 µM [inhibitor, partial curve, poor fit] | – |
| Cc1cccc(Oc2ccc(N)cc2)c1 | inconclusive: 28.2 µM [inhibitor, full curve] | – |
| O=C(NCC(=O)N1CCN(Cc2ccccc2)CC1)c1cc(Cl)cc([N+](=O)[O-])c1 | – | inactive: -11.4% |
| O=C(/C=C/c1ccc2c(c1)OCCO2)c1ccc(O)cc1 | inconclusive: 56.2 µM [inhibitor, partial curve, poor fit] | – |
| O=c1ccc2c(-c3ccccc3S(=O)(=O)O)c3ccc(O)c(O)c3oc-2c1O | active: 0.708 µM | – |
| CCOC(=O)N1CCN(CCC(=O)c2ccc(Br)cc2)CC1 | inconclusive: 89.1 µM [inhibitor, single point] | – |
| CCOC(=O)N1CCN(C(=O)CCCCCn2c(=S)[nH]c3ccsc3c2=O)CC1 | active: 79.4 µM | – |
| O=C(CSc1ncc(-c2ccc(Cl)cc2)[nH]1)Nc1ccccc1F | – | inactive: -2.4% |
| COc1ccccc1CNC(=O)c1cnccn1 | inconclusive: 63.1 µM [inhibitor, partial curve, poor fit] | – |
| Cc1ccc(S(=O)(=O)N2CCCC2C(=O)Nc2ccc(Br)cc2)cc1 (stereo not drawn) | – | inactive: -0% |
| CCOC(=O)CCCSc1nnc(CCCCCN2C(=O)c3cccc4cccc(c34)C2=O)o1 | – | inactive: -11.5% |

| SMILES | Potency | activity change, negative = inhibition |
| --- | --- | --- |
| CC1=NN(c2ccccc2)C(=O)C1N=Nc1cccc(O)c1 (stereo not drawn) | inconclusive: 12.6 µM [inhibitor, full curve] | – |
| COC/C=C/C1=CC2=CC(=O)C(C)(OC(=O)c3cnc4ccccc4n3)C(=O)C2=CN1CC1CC1 (stereo not drawn) | inconclusive: 50.1 µM [inhibitor, partial curve] | – |
| Cc1ccc(NC(=O)CNCc2ccccc2Cl)cc1S(=O)(=O)N(C)C | active: 3.16 µM | – |
| OC1CCN(Cc2cccc3ccccc23)CC1 | active: 79.4 µM | – |
| CCc1ccc2c(c1)c1nc(C)sc1n2CC | – | inactive: 7.94% |
| COc1ccc(CNc2nc(NCc3ccc(OC)cc3)n(C(=O)c3ccccc3[N+](=O)[O-])n2)cc1 | inconclusive: 5.01 µM [inhibitor, full curve] | – |
| COC(=O)c1ccc([C@H]2Nc3ccc(S(=O)(=O)Nc4ccc(F)cc4)cc3[C@H]3C=CC[C@H]32)cc1 | inconclusive: 50.1 µM [inhibitor, partial curve] | – |
| CCN(Cc1ccccc1)S(=O)(=O)c1ccc(C(=O)N(CCCN(C)C)c2nc3cc4c(cc3s2)OCO4)cc1 | active: 56.2 µM | – |
| COc1ccc(C(=O)NCCCCCC(=O)N/N=C/c2ccco2)cc1OC | – | inactive: -14.3% |
| O=C1CCN(Cc2ccccc2)CCN1[C@H](COc1ccccc1)Cc1ccccc1 | inconclusive: 79.4 µM [inhibitor, partial curve] | – |
| COc1ccc(S(=O)(=O)NCc2ccc3c(c2)CCN3C(C)=O)cc1OC | – | inactive: -15.9% |
| CCOC(=O)c1cc(-c2ccc(OC)cc2)nn1-c1ccccc1C(=O)O | inconclusive: 44.7 µM [inhibitor, partial curve] | – |
| CCCN1CNc2c(c(=O)[nH]c(=S)n2CCc2cc(OC)ccc2OC)C1 | – | inactive: -9.52% |
| COc1ccc(NC(=O)CN2C(=O)NC3(CCCCCCC3)C2=O)cc1 | – | inactive: -6.9% |
| Cc1cccc(NC(=O)CCn2nc(C)c3c(C)n(-c4ccccc4)nc3c2=O)c1C | – | inactive: -9.31% |
| CN(C(=O)CN1C(=O)/C(=C/c2ccc(Cl)cc2)SC1=S)C1CCS(=O)(=O)C1 (stereo not drawn) | – | inactive: -0.694% |
| Cc1ccc(C23CC4CC(CC(NC(=O)NCCN(C)C)(C4)C2)C3)cc1 | – | inactive: 2.61% |
| COc1ccc(OC)c(-n2c(O)cnc2Nc2nc(C)cc(C)n2)c1 | inconclusive: 17.8 µM [inhibitor, partial curve, poor fit] | – |
| O=C(c1ccc(CNS(=O)(=O)c2cccc(Cl)c2)cc1)N1CCCCC1 | – | inactive: 1.38% |
| COc1ccc(NC(=O)C2=CC(c3ccc(OC)cc3)=NS(=O)(=O)N2C)cc1 | inconclusive: 50.1 µM [inhibitor, partial curve] | – |
| CCOc1ccc(-n2c(C)cc(C(=O)NS(=O)(=O)c3ccc(C)cc3)c2C)cc1 | – | inactive: -28.5% |
| Cc1cccc(C)c1NC(=O)CN(C)C(=O)c1cccc(-n2cccc2)c1 | active: 8.91 µM | – |
| CCC(=O)Nc1cccc(NC(=O)c2ccc3c(c2)OCCO3)c1 | – | inactive: -10.1% |
| CCCc1nc(NCCCOCC)c2nnn(Cc3ccccc3)c2n1 | – | inactive: 0.369% |
